From patent US20100285131A1 (Amgen, published 2010)

Molecular target: β-Klotho overexpressed in recombinant human 293T kidney cells
Test: cell-based or functional assay

Binder | EC50 (nM), ELK-luciferase | Efficacy, ELK-luciferase
Fc-(L15)-FGF21 (L98R, P171G) (Fc fusion) [skipping human IgG1 Fc]GGGGGSGGGSGGGGSHPIPDSSPLLQFGGQVRQRYLYTDDAQQTEAHLEIREDGTVGGAADQSPESLLQLKALKPGVIQILGVKTSRFLCQRPDGALYGSLHFDPEACSFRERLLEDGYNVYQSEAHGLPLHLPGNKSPHRDPAPRGPARFLPLPGLPPAPPEPPGILAPQPPDVGSSDPLSMVGGSQGRSPSYAS | 2.5 nM | 76.1%
Fc-(L15)-FGF21 (L98R, P171G, Y179S) (Fc fusion) [skipping human IgG1 Fc]GGGGGSGGGSGGGGSHPIPDSSPLLQFGGQVRQRYLYTDDAQQTEAHLEIREDGTVGGAADQSPESLLQLKALKPGVIQILGVKTSRFLCQRPDGALYGSLHFDPEACSFRERLLEDGYNVYQSEAHGLPLHLPGNKSPHRDPAPRGPARFLPLPGLPPAPPEPPGILAPQPPDVGSSDPLSMVGGSQGRSPSSAS | 25.3 nM | 74.8%
Fc-(L15)-FGF21 (L98R, P171G, Y179F) (Fc fusion) [skipping human IgG1 Fc]GGGGGSGGGSGGGGSHPIPDSSPLLQFGGQVRQRYLYTDDAQQTEAHLEIREDGTVGGAADQSPESLLQLKALKPGVIQILGVKTSRFLCQRPDGALYGSLHFDPEACSFRERLLEDGYNVYQSEAHGLPLHLPGNKSPHRDPAPRGPARFLPLPGLPPAPPEPPGILAPQPPDVGSSDPLSMVGGSQGRSPSFAS | 2.6 nM | 78.3%
Fc-(L15)-FGF21 (L98R, P171G, Y179A) (Fc fusion) [skipping human IgG1 Fc]GGGGGSGGGSGGGGSHPIPDSSPLLQFGGQVRQRYLYTDDAQQTEAHLEIREDGTVGGAADQSPESLLQLKALKPGVIQILGVKTSRFLCQRPDGALYGSLHFDPEACSFRERLLEDGYNVYQSEAHGLPLHLPGNKSPHRDPAPRGPARFLPLPGLPPAPPEPPGILAPQPPDVGSSDPLSMVGGSQGRSPSAAS | 43.2 nM | 79.6%
Fc-(L15)-FGF21 (L98R, P171G, A180E) (Fc fusion) [skipping human IgG1 Fc]GGGGGSGGGSGGGGSHPIPDSSPLLQFGGQVRQRYLYTDDAQQTEAHLEIREDGTVGGAADQSPESLLQLKALKPGVIQILGVKTSRFLCQRPDGALYGSLHFDPEACSFRERLLEDGYNVYQSEAHGLPLHLPGNKSPHRDPAPRGPARFLPLPGLPPAPPEPPGILAPQPPDVGSSDPLSMVGGSQGRSPSYES | 1.9 nM | 79.6%
Fc-(L15)-FGF21 (L98R, P171G, A180S) (Fc fusion) [skipping human IgG1 Fc]GGGGGSGGGSGGGGSHPIPDSSPLLQFGGQVRQRYLYTDDAQQTEAHLEIREDGTVGGAADQSPESLLQLKALKPGVIQILGVKTSRFLCQRPDGALYGSLHFDPEACSFRERLLEDGYNVYQSEAHGLPLHLPGNKSPHRDPAPRGPARFLPLPGLPPAPPEPPGILAPQPPDVGSSDPLSMVGGSQGRSPSYSS | 2.18 nM | 84.7%
Fc-(L15)-FGF21 (L98R, P171G, A180G) (Fc fusion) [skipping human IgG1 Fc]GGGGGSGGGSGGGGSHPIPDSSPLLQFGGQVRQRYLYTDDAQQTEAHLEIREDGTVGGAADQSPESLLQLKALKPGVIQILGVKTSRFLCQRPDGALYGSLHFDPEACSFRERLLEDGYNVYQSEAHGLPLHLPGNKSPHRDPAPRGPARFLPLPGLPPAPPEPPGILAPQPPDVGSSDPLSMVGGSQGRSPSYGS | 3.25 nM | 76.9%
Fc-(L15)-FGF21 (L98R, P171G, 182G, 183G) (Fc fusion) [skipping human IgG1 Fc]GGGGGSGGGSGGGGSHPIPDSSPLLQFGGQVRQRYLYTDDAQQTEAHLEIREDGTVGGAADQSPESLLQLKALKPGVIQILGVKTSRFLCQRPDGALYGSLHFDPEACSFRERLLEDGYNVYQSEAHGLPLHLPGNKSPHRDPAPRGPARFLPLPGLPPAPPEPPGILAPQPPDVGSSDPLSMVGGSQGRSPSYASGG | 1940 nM | 84.2%
Fc-(L15)-FGF21 (L98R, P171G, 182P) (Fc fusion) [skipping human IgG1 Fc]GGGGGSGGGSGGGGSHPIPDSSPLLQFGGQVRQRYLYTDDAQQTEAHLEIREDGTVGGAADQSPESLLQLKALKPGVIQILGVKTSRFLCQRPDGALYGSLHFDPEACSFRERLLEDGYNVYQSEAHGLPLHLPGNKSPHRDPAPRGPARFLPLPGLPPAPPEPPGILAPQPPDVGSSDPLSMVGGSQGRSPSYASP | 6.1 nM | 85.9%
Fc-(L15)-FGF21 (L98R, P171G, 182G) (Fc fusion) [skipping human IgG1 Fc]GGGGGSGGGSGGGGSHPIPDSSPLLQFGGQVRQRYLYTDDAQQTEAHLEIREDGTVGGAADQSPESLLQLKALKPGVIQILGVKTSRFLCQRPDGALYGSLHFDPEACSFRERLLEDGYNVYQSEAHGLPLHLPGNKSPHRDPAPRGPARFLPLPGLPPAPPEPPGILAPQPPDVGSSDPLSMVGGSQGRSPSYASG | 6.5 nM | 71.1%
